These results are taken from PubChem BioAssay AID463173 (ICCB-Longwood Screening Facility, Harvard Medical School, 2010).

Structures are written as SMILES. The campaign covered roughly 52,000 compounds. About 1,700 (3.3%) were called active. No stated cut-off is given here; in the data, active means survival mostly below about 52% (no sharp cut-off); inactive means mostly above about 56%. Some of the results follow.

The subject of the assay is Wild type. The assay is described as follows: S. aureus survival, RN4220 and DeltatarO strains – OD600, teichoic acid synthesis inhibitors, primary screen (AID 463173). Conditions: S. aureus RN4220 wild type/DeltatarO growth, OD600, 18 h, active compounds read low, screened at 18.75 µg/mL (by protocol).
For `O=c1c2cnn(-c3ccc(Cl)cc3)c2ncn1Cc1ccc(Cl)cc1Cl`, the survival was inactive: 92%.
Then `Cc1nc2c(C(=O)NCc3ccccc3)cnn2c(C)c1Cc1ccc(F)cc1`, with inactive: 84%; and `Cc1ccc(Cn2c(=O)n(Cc3ccco3)c(=O)c3sc4ccccc4c32)cc1`, with inactive: 94%; and `CCCCC(=O)Nc1cc(C)c(O)c(-c2nc3ncccc3o2)c1`, with inactive: 158%.
For the compound `Cc1cccc(C(=O)Nc2cc3c(cc2N2CCCCC2)n(C)c(=O)c(=O)n3C)c1`, the survival is inactive: 87%.
For `O=C(CCN1CCCCC1)c1ccccc1`, the survival was inactive: 92%.
Then `CC(=O)N1CCC2(CC1)OC(=O)C(C)=C2C(=O)Nc1cccc(Cl)c1C`, with inactive: 82%; and `O=C1N=C2C=CC=CN2C(=O)C1Cc1ccccc1` (centres undefined), with inactive: 92%.
Regarding `O=C(CC1N=C2c3ccccc3N=C(SCc3ccccc3F)N2C1=O)NCCc1ccccc1` (centres undefined), the survival was inactive: 97%.
For `CCOC(=O)Cn1cc(C#N)c2ccccc21`, the survival is inactive: 98%.
Then `Cc1ccsc1CCN1C(=O)N(c2ccccc2)C(=O)C1CC(=O)Nc1ccc(F)cc1` (centres undefined), with inactive: 119%; and `COc1ccc(CCC(=O)NCc2ccc3c(c2)CCN3C(=O)c2ccc(F)cc2)cc1`, with inactive: 67%.
Next, `COc1ccc(-c2nc3cc(NC(=O)Cc4ccc(Cl)cc4)ccc3o2)cc1OC`: inactive: 73%.
On to `Cc1ccc(Cl)cc1Nc1nc2ccccc2c2nncn12`, for which the survival is inactive: 92%.
Then `Cc1ccc(CCNC(=O)CCN2N=C(c3ccc(C)cc3)CCC2=O)cc1`, with inactive: 136%.
Next, `Cc1cccc(C)c1NC(=O)c1ccc2c(c1)N(Cc1cccc(Cl)c1)C(=O)c1ccccc1S2=O` (centres undefined): inactive: 145%; `CCOC(=O)c1ccc(NC(=O)Cn2nc(SC)c(S(=O)(=O)c3ccc(Cl)cc3)c2N)cc1`: inactive: 64%; `CC(C)CC(=O)Nc1nnc(S(=O)(=O)N2CCCCCC2)s1`: inactive: 116%.
Next, `Cc1ccc(C(=O)N(Cc2sccc2C)C2CCS(=O)(=O)C2)cc1` (centres undefined): inactive: 95%.
For `Cc1nc(C)c(-c2ccc(SCC(=O)Nc3ccc(Cl)c(Cl)c3)nn2)s1`, the survival was inactive: 64%.
As to `COc1ccccc1NC(=O)N1c2ccccc2Sc2ccccc21`, the survival was active: -1%.
Next, `COc1ccc(OC)c(-n2nnc3c(sc4nc(C)c(Br)c(C)c43)c2=O)c1`: inactive: 81%; `COc1ccccc1NC(=O)N(Cc1cc2c(C)ccc(C)c2[nH]c1=O)CC1CCCO1` (centres undefined): inactive: 117%.
Next, `COCCCNC(=O)CCCn1c(SCC(=O)c2ccc(F)cc2)nc2c(sc3ccccc32)c1=O`: inactive: 103%; `COc1ccc(CNC(=O)CSc2ncc3c(n2)-c2ccc(Cl)cc2N(Cc2ccc(F)cc2)S3(=O)=O)cc1OC`: inactive: 118%; `CCOc1cc(Br)cc(C2NC(=O)c3c(sc4c3CCN(C)C4)N2)c1O` (centres undefined): inactive: 84%.
Turning to `CCC1CCCCN1C(=O)c1cc2cc(OC)ccc2oc1=O` (centres undefined), the survival was inactive: 108%.
Regarding `CC(C)(C)c1ccc(C(=O)NCC(c2ccco2)S(=O)(=O)c2ccc(F)cc2)cc1` (centres undefined), the survival is inactive: 131%.
Then `CCCCNc1c2c(c(C#N)c3nc4ccccc4n13)CCC2`, with inactive: 106%; and `CN(C)c1ccc(CNC(=O)c2ccc(Cn3c(=O)c4cccn4c4cccnc43)cc2)cc1`, with inactive: 87%.
Then `CCOC(=O)c1ccc(NC(=O)CSc2nnc3c4ccccc4n(CC)c3n2)cc1`, with inactive: 81%; and `O=C(CSc1c2c(nc3ccccc13)CCC2)Nc1ccc(F)cc1`, with inactive: 111%.
Next, `COc1ccc(Cn2c(C(=O)O)c(CNCc3ccco3)c3ccc(OC)cc32)cc1`: inactive: 84%; `CC(C)c1c(O)c2ccccc2[nH]c1=O`: inactive: 118%; `COc1ccc(-n2cnc3cc(C(=O)NC4CCCC4)ccc32)cc1`: inactive: 73%.
Consider `Cc1ccc(Cn2c(CNC(=O)CCc3ccccc3)nc3cccnc32)cc1`, for which the survival was inactive: 99%.
Then `Cc1cccc(N2CCN(Cc3nnc(-c4ccccc4C)o3)CC2C)c1` (centres undefined), with inactive: 21%.
Take `COc1ccc(C2=Nc3ccc(F)cc3NC(c3cccc(C(F)(F)F)c3)=N2)cc1`: the survival is inactive: 63%.
Next, `CCCOc1ccc(C(=O)N(Cc2ccccc2Cl)C2CCS(=O)(=O)C2)cc1` (centres undefined): inactive: 98%; `CCc1ccc2ncc(C(=O)c3ccc(C)c(C)c3)c(N3CCC(C(N)=O)CC3)c2c1`: inactive: 102%; `COC(=O)c1ccccc1NC(=O)c1cnc(Nc2ccc(OC)cc2)c2ccccc12`: inactive: 68%.
Then `CCCCOc1cccc(C(=O)N(Cc2ccc(N(C)C)cc2)C2CCS(=O)(=O)C2)c1` (centres undefined), with inactive: 83%; and `Cc1cc(-c2nc3ncccc3o2)ccc1NC(=O)c1ccccc1Br`, with inactive: 50%; and `O=C(Cn1cnc(S(=O)(=O)N2CCCC2)c1)Nc1cccc(Br)c1`, with inactive: 73%.
`NC(=O)c1nsc(C(=O)N(CC(=O)NCc2ccc3c(c2)OCO3)C2CCCCC2)c1N`: the survival is inactive: 106%.
Then `O=C(COc1ccc(F)cc1)NCC(c1ccc(Cl)cc1)N1CCCCC1` (centres undefined), with inactive: 111%; and `Cc1ccc(CCNC(=O)CCCn2c(=O)c3ccccc3n(Cc3ccccc3C)c2=O)cc1`, with inactive: 94%.
Then `CC(=O)N1c2ccc(S(=O)(=O)N3CCCCCC3)cc2CC1C(=O)NCc1ccccc1C` (centres undefined), with inactive: 67%.
On to `COc1cc(OC)c(-c2cc(C(=O)NCc3ccc(F)cc3)c3c(-c4ccccc4)[nH]nc3n2)cc1OC`, for which the survival was inactive: 120%.
As to `COc1ccc(CCNC(=O)Cn2c(=O)n(-c3ccccc3)c(=O)c3c(C)c(C)sc32)cc1OC`, the survival was inactive: 97%.
As to `O=C(Nc1ccc2c(c1)CCCN2C(=O)c1cccs1)c1ccccc1`, the survival was inactive: 113%.
Then `O=C(Cn1c(=O)n(Cc2ccccc2)c(=O)c2sc3ccccc3c21)Nc1ccccc1F`, with inactive: 104%; and `O=C(NC1CCCc2ccccc21)c1ccc2c(c1)sc1nc(-c3ccccc3)cn12` (centres undefined), with inactive: 88%.
In the case of `CC(C)C1N=C2c3ccccc3N=C(SCC(=O)NCc3ccc(Cl)cc3)N2C1=O` (centres undefined), the survival is inactive: 83%.
Consider `COc1ccc(-n2nc(C(=O)N3CCN(c4ccccc4OC)CC3)c3c4ccccc4n(C)c3c2=O)cc1Cl`, for which the survival was inactive: 126%.
Then `COc1ccccc1CNC(=O)CCCN1C(=O)CSc2c1c(C)nn2-c1ccccc1`, with inactive: 91%.
Then `CC(=O)N1CCOc2cc(S(=O)(=O)NCc3ccc(F)cc3)c(C)cc21`, with inactive: 83%.
Next, `CCOc1ccccc1NC(=O)C1CCN(S(=O)(=O)c2cccs2)CC1`: inactive: 93%.
Take `CC(CNC(=O)CCc1cn(Cc2ccccc2Cl)c2ccccc12)c1ccccc1` (centres undefined): the survival was inactive: 83%.
Next, `COc1cccc(Oc2nc(C)nc3c2oc2ccccc23)c1`: inactive: 19%; `Cc1c(C(=O)NCc2cccc(Cl)c2)sc2nc[nH]c(=O)c12`: inactive: 81%; `Cc1nc(N2CCCC2)c2c(C(=O)Nc3cccc(Cl)c3)c(C)oc2n1`: active: -3%.
Then `CCCS(=O)(=O)c1nc(S(=O)(=O)c2ccc(C)cc2)c(NCc2ccccc2Cl)s1`, with inactive: 128%; and `CCOc1ccc(NC(=O)Cn2ccn3nc(-c4ccc(OC)c(OC)c4)cc3c2=O)cc1`, with inactive: 124%.
Next, `Cc1cc(C)cc(NC(=O)Nc2ccc3nc(N4CCN(C)CC4)cc(C)c3c2)c1`: inactive: 128%.
On to `CC1(C)CC(=O)c2cc(C#N)c(=O)n(-c3ccc(Cl)cc3)c2C1`, for which the survival is inactive: 64%.
Take `CCCOc1nc(N)c(C#N)c(-c2ccccc2F)c1C#N`: the survival is inactive: 114%.
Take `CCc1ccc(NC(=O)c2ccc(F)c(S(=O)(=O)N3CCN(c4ccc(OC)cc4)CC3)c2)cc1`: the survival was inactive: 64%.
On to `Cc1ccsc1CN(C(=O)c1ccc(OCC(C)C)cc1)C1CCS(=O)(=O)C1` (centres undefined), for which the survival was inactive: 85%.
Then `COc1ccc(NC(=O)Cn2cc(C(=O)c3ccccc3)c(=O)c3cc(OC)ccc32)c(OC)c1`, with inactive: 89%; and `O=C(O)CCC(=O)Nc1sc2c(c1C(=O)Nc1ccccc1)CCCCC2`, with inactive: 100%; and `CSc1ccc(NC(=O)N2C3CCC2CC(O)(c2cccnc2)C3)cc1` (centres undefined), with inactive: 111%.
As for `CCOC(=O)c1cccc(NS(=O)(=O)c2cc(-c3cnc(C4CC4)o3)ccc2C)c1`, the survival is inactive: 97%.
Take `Cc1ccc2oc(-c3cccc(NC(=O)Cc4ccc(Cl)cc4)c3)nc2c1`: the survival was inactive: 74%.
Next, `CCOC(=O)c1c(S(=O)(=O)N2CCCC(C(=O)Nc3ccc(C)cn3)C2)c(C)n(C)c1C` (centres undefined): inactive: 59%; `Cc1ccc(-n2c3nc(=O)[nH]c(=O)c-3cc3c(C)nn(-c4ccccc4)c32)cc1C`: inactive: 116%; `Cc1ccc(Sc2c(C)nn(C(=O)c3ccc(Cl)cc3)c2C)cc1`: active: 2%.
Then `Cc1c(C(=O)OC(C)C)sc(NC(=O)C2c3ccccc3Oc3ccccc32)c1C(=O)OC(C)C`, with inactive: 87%; and `NC(=O)N/N=C/c1ccc(-c2ccc(Cl)cc2)o1`, with inactive: 106%.
For the compound `Cc1cccc(NC(=O)CSc2nc3ccccc3nc2N2CCOCC2)c1C`, the survival is inactive: 65%.
Consider `CC(C)c1n[nH]c(=S)n1C`, for which the survival was inactive: 101%.
For the compound `CCOC(=O)C1=C(C)NC(=O)NC1C1CC=CCC1` (centres undefined), the survival was inactive: 116%.
Consider `CC(=O)ON1C(c2ccccc2)[N+]([O-])=C(c2ccccc2)C1(C)C` (centres undefined), for which the survival is inactive: 115%.
Then `CCOc1ccc(CNS(=O)(=O)c2cc3c(cc2C)NC(=O)CO3)cc1`, with inactive: 79%.
For `CC(=O)c1ccc(N2CCN(C(=O)CCCCn3c(=O)[nH]c4ccsc4c3=O)CC2)cc1`, the survival was inactive: 86%.
Then `COc1ccc(Cn2c(=O)c3cccnc3n(CC(=O)Nc3c(C)cc(C)cc3C)c2=O)cc1`, with inactive: 85%; and `CCc1cnc2c(c1SCC(=O)c1ccc(Cl)cc1)c(=O)n(C)c(=O)n2C`, with inactive: 72%.
Next, `CCOC(=O)C1=C(c2ccccc2)OC(N)=C(C#N)C1c1ccncc1` (centres undefined): inactive: 108%.
Next, `CCOC(=O)c1c(-c2ccc(OC)cc2)oc2ccc(OCc3ccc(Br)cc3)cc12`: inactive: 73%.
